Reference: the supplement of paper PMC11417369
The other results are listed elsewhere or left out.

The sequences below were run on PfAP2-HC AP2 domain (GST-tagged) (assay: gcPBM binding intensity (ln(normalized median fluorescence intensity)); higher = stronger DNA binding).
In short: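 Binding intensity is the highest Masliner-normalised natural-log median intensity over replicate spots in either probe orientation. To obtain it, GST-tagged P. falciparum DNA-binding domains made in E. coli were incubated for 1 h on an Agilent 4 × 180k array of primer-extended double-stranded 36-bp intergenic genomic probes plus negative controls. Detection used Alexa488 anti-GST antibody with scanning at 488 nm.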

Row | Sequence | gcPBM binding intensity (ln)
1 | TATTTTTTTTGATATTGTACTTTTTTATTATTTTTT [XGTACX_site566] | 9.74
2 | TAAAAATTTAAGAAAACATGCATCTAACATATATAT [TGCATGCA_site342] | 9.58
3 | AATATACAAAATAAATAAAATATATATATATATATA [CACACA_negctrl_site216] | 9.95
4 | AAGTAATCATCATAAAGTACTAAATTATATTGTCAA [XGTACX_site5841] | 9.51
5 | GAAAATATATTTAAGATGCACTTTAAAAATGTACTT | 9.46
6 | AAATTATATATAAAATGTACATATGTAGGTAATTTT [XGTACX_site5047] | 10.1
7 | ACATTCTGATGGTGATTATTAATTATTACAAAAATT [CACACA_negctrl_site283] | 9.44
8 | GTATATATGTATGTATGTACTTATAAAGTTGCATAT [XGTACX_site5616] | 9.63
9 | TCTACATCTGTATATAAACACACAACAAAAATGCTT [CACACA_site9271] | 9.63
10 | ACTTTATTATATATTTGTACATATATTTTTAATTTC [XGTACX_site4144] | 9.96
11 | TATTTATTGTGATACTTATATTATTTCATGATTAAT [CACACA_negctrl_site738] | 9.72
12 | TATATATTTCAATAATGTACATATAATATATATATT [XGTACX_site4124] | 9.67
13 | AATGTGTAGACACGCACACACAAAAAAATATTTATA [CACACA_site7384] | 10.2
14 | ATATTATAAATTATAGGTACACACAAAAAAAAAAAG [XGTACX_site2637] | 10
15 | AAGTTTTCTTAAAGATGTACTTTTTAAAAATAAAAT [XGTACX_site3063] | 9.24
16 | ATATCAAGCTATGAGAAAAAAAAAAAGAAAAAAAAA [CACACA_negctrl_site1370] | 9.36
17 | AAATATATTGCATATATACACACGTATATATATTAA [CACACA_site2759] | 9.66
18 | TGATTCTTTTCAAAGTGTACAGTAATTTTTATGTAA [XGTACX_site8452] | 9.48
19 | TATATAATTCAAAAATGTACATGAAATATAAATATT [XGTACX_site7984] | 9.71
20 | TCTTCAAAGACACAATCACACACATACATAAATATA [CACACA_site8128] | 10
21 | AATACGTTTCAAAAATGTACACATATATCATAAATA [XGTACX_site8962] | 9.55
22 | ATCAAAAATGTTATATATATATATATATATATATAT [TGCATGCA_negctrl_site71] | 9.47

Row | Sequence | gcPBM binding intensity (ln)
23 | TTAAATAAAAAAATAACACACATATAAATCTATATG [CACACA_site7482] | 9.75
24 | GCCATTAATTTATACACACACATTATAACTTTTTAT [CACACA_site6492] | 10.2
25 | TATCAGCAATGGAAAACATGCAAAAAATTAATATAT [TGCATGCA_site623] | 9.48
26 | AGTAATAAATTTTATACATGCATAAAAAAAAAAAAA [TGCATGCA_site661] | 9.73
27 | TATAGCTTTCATTATACACACATCAAAAATTTAAAT [CACACA_site227] | 9.66
28 | TTAAAAATCATTTAAGAACACACAAATATTTCCATT [CACACA_site8418] | 9.63
29 | AACTTGTATTTATACACACACACACTAGCTTTTTTT [CACACA_site5132] | 10.4
30 | AGAATTAAAAACAGTTGTACAAAAAGTTGTATAAAT [XGTACX_site411] | 10
31 | TATATTTATTTTTAATGTACATATTTAAGAAAACTA [XGTACX_site4920] | 9.39
32 | GACTCATTAAGGATTATTCCTAATGATCAAAAGAAC [CACACA_negctrl_site515] | 9.38
33 | TTTCTTTGTATTTATAGTACATATTTTAATAACTGC [XGTACX_site6673] | 9.6
34 | ATAATATTTTATTATACATGCAAATTATTATATATA [TGCATGCA_site40] | 9.47
35 | TAAAAATTAAAAAGGGTGCAAAAAAAAAAAAAAAAA [GTGCAC_site9733] | 9.24
36 | TATTAATTATAAGATGCATGTGCAAAAATATGTTCC [TGCATGCA_site51] | 9.75
37 | GATTAAAATCAAAGGTGTACGCACAAATAAGTCCCA [XGTACX_site4360] | 9.82
38 | CACCCTTTGTTTTAGAGTACATATGTATATACGTAA [XGTACX_site7964] | 9.76
39 | TATATATATTTATGTACACACATATATACCTTTCAT [CACACA_site5479] | 9.94
40 | TTTCCGGTAATATGGAGATATATGTGGGTTTTTTTT [GTGCAC_negctrl_site374] | 9.66
41 | ACAAAATTTACAAAATGTACAAAGTATGTGTTTTAT [XGTACX_site6462] | 9.8
42 | ATATTTTTTTTTTTCACACACATTTATATTGTATTA [CACACA_site5695] | 10.2
43 | AGAAAAAAGAGGGATACACACAAACATATATTTATA [CACACA_site7122] | 10.5
44 | TATTAAAATATTCTCACACACCAAAATATGTATGTA [CACACA_site6565] | 9.73

Row | Sequence | gcPBM binding intensity (ln)
45 | AAAAAAAAAAAAAAAAAAAGAAAAGAAAATAGGGTT [GTGCAC_negctrl_site421] | 9.45
46 | ATTATATTAATTTATAGTACAATATTTATATATATG [XGTACX_site4668] | 9.57
47 | TATATATTACTTTTTTGTACGAATTTTACAACTACG [XGTACX_site3473] | 9.78
48 | AATATACATAACAAGGTGCAAAAAATATTGTTCATA [GTGCAC_site9499] | 9.85
49 | TTATTATTATGATTATTATGATGATTATACAACTGT [TGCATGCA_negctrl_site241] | 9.57
50 | AGGAGGAACAAACAAAACAATAAAAATTATAATAAA [GTGCAC_negctrl_site206] | 9.73
51 | AAAAGACATTTTTTTTTATAAATACACACGTACGTG [TGCATGCA_negctrl_site281] | 9.68
52 | TTCAAAGACACAATCACACACATACATAAATATACA [CACACA_site687] | 10.8
53 | TTCCAAGAAATAATAGTGCATTATTCATTTTAATAA | 9.25
54 | GTAATCCACAAACACACACACATACACATATATATA [CACACA_site2728] | 10.6
55 | ATCATTTTTAATAAATGTACAAGTTTTAAAAAAAAA [XGTACX_site7340] | 9.47
56 | AAAAAAACAACATGCACACGCACACCCAAAAAAAGC [CACACA_site72] | 10.7
57 | ATAATATTTTAGAGCAGTACACTTTTATATTTATTG [XGTACX_site5728] | 9.67
58 | AGAGGAAAAATAAAAGGAAAAAAGAAAATAATATTG [CACACA_negctrl_site852] | 9.37
59 | ATATATTACAATATATGTACTTAATTTGCTTAAATA [XGTACX_site7912] | 9.52
60 | AAAATAAATATTACATGTACATATATATATATATAT [XGTACX_site8492] | 9.91
61 | TAAAACAGAATGAGGAGTACAAAAAGAAGAAAAGGG [XGTACX_site1246] | 9.83
62 | TACACATGTTTAAAATGTACGTTTTATAACACACAC [XGTACX_site8229] | 9.93
63 | GGTAGGTGAATATATACACACATATATTATATATAT [CACACA_site1984] | 10
64 | TTTTACAAGTATTGATAAATAAGAAATATATAAAAT [CACACA_negctrl_site529] | 9.42
65 | AAAAAAAATTAAGCATGTATAAATATATATATATAT [CACACA_negctrl_site1540] | 9.67
66 | GTGTATTTTGTGCGCACACACATGCAAAAAGAAATA [CACACA_site6660] | 10.6

Row | Sequence | gcPBM binding intensity (ln)
67 | TAACACATAAATAAATATATACATATATATAAAATA [CACACA_negctrl_site375] | 9.78
68 | AATATATCATAATGATGTACAAGTAAAACCGTTACA [XGTACX_site4280] | 9.7
69 | AATATATATATATATACATGCATATATTCCTTCCTT [TGCATGCA_site890] | 9.64
70 | ATTCTTTTAAACAGTACACACACACCGATATATATA [CACACA_site8213] | 10.7
71 | AAAAACTTATATGATACACACGATAAACAAAATAAA [CACACA_site1039] | 9.89
72 | TTTGTGCCTATAAATTAACACACAGAAATATATAGA [CACACA_site8175] | 9.76
73 | CAAAAATACATTATAATAATATGCACAATAATAAAT [XGTACX_negctrl_site263] | 9.88
74 | GATCTATATATCATTACACACTTGAATTACTTAAAA [CACACA_site21] | 9.59
75 | ATAAAATAAAATTGGTGTACTTTTGATAAAATAAAA [XGTACX_site4264] | 9.59
76 | TTTTTTTTTTTTATTTGTACACATTTTCATATTTTT [XGTACX_site4406] | 9.81
77 | TATATTTACTCTAAGTGTACATATTATTTTATAATA [XGTACX_site2046] | 9.53
78 | TATATATATATGTGCACACATAAAGATATTATTTTT [CACACA_site3733] | 10.2
79 | AAAAGTAAAAAAAGCACACACGAAAAAAAATAAAAA [CACACA_site5264] | 10.2
80 | TCCATAAATAATTGTAGTACACATACTATGTGACAT [XGTACX_site7268] | 9.65
81 | ATATATATATATATGTGTACATATAAGATAGAAGAA [XGTACX_site3198] | 10.2
82 | TATTTATTTATAAATGCATGTCGCTCTTTTTATTAC [TGCATGCA_site626] | 9.96
83 | AACTATAAAAGTTTTACACACTGTTTTTAAATAATG [CACACA_site7686] | 9.63
84 | TTATGCATAAAAGGTGGTACTCCGTATATACATTCT [XGTACX_site4354] | 9.62
85 | ATTATTATAGATATAACACACATAATTACATACTTA [CACACA_site6837] | 9.72
86 | CAGTTGTTAATTTGTGTGCACCAAATATTATACATA | 9.75
87 | ATAATTCCATAAAATAGACACACGAATGTATAATAT [CACACA_site477] | 9.89
88 | ACATATGAATATAATACACACTTGTATTCTTAATAT [CACACA_site5085] | 9.79
